The numbers were not newly measured in publication PMC4976356, “Structural insight into β-Clamp and its interaction with DNA Ligase in Helicobacter pylori” (Scientific Reports, 2016), which cites them from elsewhere.

The test system of this data set is Ecβ-clamp.

B1: MutS: MutS, binds to β-clamp in E. coli (protein, UniProt P23909 1-853, looked up)
DNA mismatch repair protein …: MSAIENFDAHTPMMQQYLRLKAQHPEILLFYRMGDFYELFYDDAKRASQLLDISLTKRGASAGEPIPMAGIPYHAVENYLAKLVNQGESVAICEQIGDPATSKGPVERKVVRIVTPGTISDEALLQERQDNLLAAIWQDSKGFGYATLDISSGRFRLSEPADRETMAAELQRTNPAELLYAEDFAEMSLIEGRRGLRRRPLWEFEIDTARQQLNLQFGTRDLVGFGVENAPRGLCAAGCLLQYAKDTQRTTLPHIRSITMEREQDSIIMDAATRRNLEITQNLAGGAENTLASVLDCTVTPMGSRMLKRWLHMPVRDTRVLLERQQTIGALQDFTAGLQPVLRQVGDLERILARLALRTARPRDLARMRHAFQQLPELRAQLETVDSAPVQALREKMGEFAELRDLLERAIIDTPPVLVRDGGVIASGYNEELDEWRALADGATDYLERLEVRERERTGLDTLKVGFNAVHGYYIQISRGQSHLAPINYMRRQTLKNAERYIIPELKEYEDKVLTSKGKALALEKQLYEELFDLLLPHLEALQQSASALAELDVLVNLAERAYTLNYTCPTFIDKPGIRITEGRHPVVEQVLNEPFIANPLNLSPQRRMLIITGPNMGGKSTYMRQTALIALMAYIGSYVPAQKVEIGPIDRIFTRVGAADDLASGRSTFMVEMTETANILHNATEYSLVLMDEIGRGTSTYDGLSLAWACAENLANKIKALTLFATHYFELTQLPEKMEGVANVHLDALEHGDTIAFMHSVQDGAASKSYGLAVAALAGVPKEVIKRARQKLRELESISPNAAATQVDGTQMSLLSVPEETSPAVEALENLDPDSLTPRQALEWIYRLKSLV
Consider B1, for which the “interaction with E. coli β-clamp (in words)” value was “will also bind to β-clamp in E. coli”.
